# Experimental data as given in PubChem BioAssay AID651820 (National Center for Advancing Translational Sciences (NCATS), 2012).
# Among all 340,000 compounds or so, about 12,000 (3.5%) were called active. Inconclusive means that the source gave no clear call. Such entries were picked first, then a sample of the others. The call rests on the fitted dose curve; in most records, active means well fitted inhibition curve with a large enough effect; inconclusive means small, poorly fitted or top-dose-only effect, or another doubt; inactive means no such curve, though single readings can be large or run the other way. Potencies of inconclusive entries are left out as doubtful fits.
# Experiment: qHTS Assay for Inhibitors of Hepatitis C Virus (HCV)
# Conditions: Huh7.5.1 HCVcc-Cre (HCVcc is cell-culture hepatitis C virus) infection, luciferase reporter, 44 h; activity change, negative = inhibition: at 41.8 µM (top of the series)
# Outline: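 Reporter virus HCVcc-Cre (~0.5 moi) infects cells exposed to compound; seeding density 1,000 cells/well with 4 h settling beforehand. Luminescence, 15 sec read, taken 44 h post-infection following a 15 min RT substrate incubation.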
# On the % scale 0 is the no-effect control and ±100 the full control effect; potency means the concentration at half of the fitted maximal effect; tags describe the fitted curve by direction and shape.
Compound,Potency,"activity change, negative = inhibition"
Cn1c(N=Nc2ccccc2)nc2ccccc21,"inconclusive [inhibitor, full curve]",–
Clc1ccc(C(c2nnnn2C2CCCC2)N2CCSCC2)cc1 (stereo unspecified),inactive,–
O=C(N/N=C/C1CC2C=CC1C2)c1ccccc1O (stereo unspecified),inactive,–
CCc1ccc(C(=O)c2cnc3ccc(OC)cc3c2N2CCN(CC)CC2)cc1,"inconclusive [inhibitor, partial curve]",–
CC1CN(c2nc3c(c(=O)n(Cc4ccc(Cl)c(Cl)c4)c(=O)n3C)n2C)CC(C)O1 (stereo unspecified),"inconclusive [inhibitor, single point]",–
CC(C)(C)c1ccc(C(=O)N2CCC(C(=O)c3ccccc3)CC2)cc1,inactive,–
CC1CCCN(CCCOc2ccc(Br)cc2Cl)C1 (stereo unspecified),"inconclusive [inhibitor, full curve]",–
COc1cc(/C=N/NC(=O)c2csc3c2CCCC3)ccc1OCCN1CCOCC1,"inconclusive [inhibitor, single point]",–
CN(C)CCCC(C)(O)C(Cc1ccccc1)c1ccccc1 (stereo unspecified),–,inconclusive: -40.8% [inhibitor]
OC(COCC(F)(F)C(F)(F)C(F)(F)C(F)F)Cn1c2ccccc2c2ccccc21 (stereo unspecified),"inconclusive [inhibitor, partial curve, poor fit]",–
Cn1cnnc1SCc1ccccc1,inactive,–
CCc1ccc(-c2nc(CS(=O)CC(=O)NCCN3CCCCCC3)c(C)o2)cc1 (stereo unspecified),"inconclusive [inhibitor, partial curve]",–
Cc1cccc(N2CC(C)Cn3c2nc2c3c(=O)n(CC(=O)OCc3ccccc3)c(=O)n2C)c1 (stereo unspecified),"inconclusive [inhibitor, partial curve]",–
O=S(=O)(Nc1nc2ccc(Cl)cc2s1)c1cccs1,inactive,–
COc1ccc(CCNC(=O)c2cc3c(=O)n4ccccc4nc3n(C3CCCCC3)c2=N)cc1,active: 7.94 µM,–
O=C(Nc1cc(N2CCOCC2)ncn1)c1ccc(F)cc1,"inconclusive [inhibitor, single point]",–
O=C(N/N=C\c1ccc(CN(Cc2ccc(Cl)cc2)S(=O)(=O)c2ccccc2)o1)C(=O)Nc1ccc(F)cc1,"inconclusive [inhibitor, single point]",–
C=CCSc1nncn1/N=C/c1ccc(OC)cc1,inactive,–
COc1ccc(NC(=S)Nc2ccc3snnc3c2)cc1,"inconclusive [inhibitor, partial curve, poor fit]",–
CN(C)c1ccnc2sc(C(=O)c3ccccc3)c(N)c12,"inconclusive [inhibitor, full curve, poor fit]",–
CC(NC(=O)C(=O)NN=C1CCCCCC1)c1ccccc1 (stereo unspecified),inactive,–
CCCCC(=O)NC(c1ccc(Cl)cc1)c1ccc2cccnc2c1O (stereo unspecified),"inconclusive [inhibitor, full curve, poor fit]",–
CNc1ccccc1C(=O)OCC(=O)N1CCN(c2ccc(OC)cc2)CC1,"inconclusive [inhibitor, single point]",–

Compound,Potency,"activity change, negative = inhibition"
Cc1ccc(NC(=O)CN2CCN(CCN=CC3=C(O)CC(c4ccc(C)cc4)CC3=O)CC2)cc1 (stereo unspecified),"inconclusive [inhibitor, full curve]",–
CCOC(=O)C1(Cc2cccc(OC)c2)CCN(Cc2ccccc2OC)CC1,"inconclusive [inhibitor, partial curve]",–
CC(NC(=O)c1ccc(N2CCCC2=O)cc1)c1ccccc1 (stereo unspecified),inactive,–
O=C(CN(C(=O)c1ccc(Cl)cc1)C1CCCCC1)Nc1ccc(Cl)c([N+](=O)[O-])c1,"inconclusive [inhibitor, single point]",–
Cn1c(O)c(C(=Nc2ccccc2)SCc2ccc(Cl)cc2)c(=O)n(C)c1=O,"inconclusive [inhibitor, single point]",–
COc1ccc(C(=O)NCCCn2nc(C)cc2C)cc1S(=O)(=O)N1CCOCC1,inactive,–
Cc1cc(NC(=O)/C=C/c2ccc(F)cc2)n(-c2nc3ccccc3[nH]2)n1,"inconclusive [inhibitor, full curve]",–
O=C(C[n+]1ccccc1)N/N=C/c1ccccc1F,inactive,–
O=C(CSc1nc2ccc([N+](=O)[O-])cc2[nH]1)NC1CCCCCC1,active: 14.1 µM,–
Fc1ccc(CNC(=S)NC2CCCCCC2)cc1,"inconclusive [inhibitor, single point]",–
COC(=O)c1cccc(NC(=O)CSc2nc3cccnc3n2C)c1,active: 14.1 µM,–
COc1cccc(NC(=S)N2CCc3cc(OC)c(OC)cc3C2)c1,inactive,–
O=C1NC(c2cccc(OCc3ccccc3)c2)Nc2ccccc21 (stereo unspecified),"inconclusive [inhibitor, partial curve]",–
COC(=O)CNC(=O)C1(C)C=CCN1C(=O)c1ccccc1 (stereo unspecified),–,inactive: -7.8% [at 8.37 µM]
CC1=CN2C(=N)/C(=C/c3ccc([N+](=O)[O-])o3)C(=O)N=C2S1,inactive,–
COc1cccc(OCCNC(=O)c2ccccc2Sc2ccccc2C#N)c1,"inconclusive [inhibitor, single point]",–
S=C1NC[C@H](CC2CCCCC2)N1CC1CCCCC1,"inconclusive [inhibitor, single point]",–
CCN(CC)CCOc1nnc(-c2ccc(C)cc2)c2ccccc12,"inconclusive [inhibitor, partial curve]",–
COC(=O)c1[nH]c2c(c1C)C(=O)CC(c1ccc(C)cc1)C2 (stereo unspecified),"inconclusive [inhibitor, partial curve]",–
Cc1csc(=Nc2c(C)n(C)n(-c3ccccc3)c2=O)n1Cc1ccccc1,inactive,–
O=C(NCCN1CCN(C(=O)c2cccc(Br)c2)CC1)C(=O)Nc1ccc(Br)cc1,"inconclusive [inhibitor, single point]",–
O=C1CN(C(=O)CNCc2ccccc2)c2ccccc2N1,"inconclusive [inhibitor, single point]",–
CCOc1ccc(C(C(=O)NCC2CCCO2)N(C(=O)c2snc(C(N)=O)c2N)c2ccc3c(c2)OCCO3)cc1 (stereo unspecified),"inconclusive [inhibitor, single point]",–
